Results from the supplement of paper PMC4604168 (melanoma cell lines).
Some of the results follow. Many values rest on one well or one pass, so single values are uncertain.

What was measured:
Test in all cases: cell count relative to DMSO control; melanoma cells; higher = more viable cells
Conditions in all cases: library dose: low library concentration; 72 h
MZ2-MEL = tested on: MZ2-MEL
MeWo = tested on: MeWo
RPMI7951 = tested on: RPMI7951
RVH-421 = tested on: RVH-421
SkMel28 = tested on: SkMel28
SkMel2 = tested on: SkMel2
SkMel30 = tested on: SkMel30
SkMel5 = tested on: SkMel5
UACC257 = tested on: UACC257
UACC62 = tested on: UACC62
WM115 = tested on: WM115
WM1716 = tested on: WM1716
WM1745 = tested on: WM1745
WM3526 = tested on: WM3526
WM3619 = tested on: WM3619
WM451Lu = tested on: WM451Lu
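Further: cell number obtained by counting DAPI-stained nuclei in high-throughput microscope images with image analysis software, screen run in 1,536-well plates.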

Row | Compound | cell count (MZ2-MEL) | cell count (MeWo) | cell count (RPMI7951) | cell count (RVH-421) | cell count (SkMel28) | cell count (SkMel2) | cell count (SkMel30) | cell count (SkMel5) | cell count (UACC257) | cell count (UACC62) | cell count (WM115) | cell count (WM1716) | cell count (WM1745) | cell count (WM3526) | cell count (WM3619) | cell count (WM451Lu)
1 | O=c1[nH]nc(Sc2ncc([N+](=O)[O-])s2)n1-c1ccc2c(c1)OCCO2 + C[C@@H]1CCN(C(=O)CC#N)C[C@@H]1N(C)c1ncnc2[nH]ccc12 [CP690550] (first compound 0.2 µM, partner dose 1 µM) | 108% | 98.1% | 97.9% | 106% | 91.3% | 95.8% | 111% | 90% | 76.2% | 93.4% | 98.5% | 76.2% | 87.4% | 99.2% | 102% | 120%
2 | CC1(C)NC(=O)N(c2ccc([N+](=O)[O-])c(C(F)(F)F)c2)C1=O [nilutamide] + Cc1ccc(NC(=O)c2cccc(N(C)C)c2)cc1NC(=O)c1ccc(O)cc1 [ZM336372] (first compound 1 µM, partner dose 2 µM) | 77.8% | 101% | 83.7% | 125% | 94.4% | 117% | 57% | 88.9% | 103% | 102% | 91.1% | 105% | 72.6% | 95.7% | 116% | 110%
3 | CC1(C)NC(=O)N(c2ccc([N+](=O)[O-])c(C(F)(F)F)c2)C1=O [nilutamide] + COc1cc2c(Oc3ccc4[nH]c(C)cc4c3F)ncnc2cc1OCCCN1CCCC1 [cediranib] (first compound 1 µM, partner dose 0.4 µM) | 108% | 100% | 114% | 90.6% | 97.1% | 95% | 102% | 96.9% | 82% | 79.8% | 97.1% | 92.8% | 103% | 101% | 105% | 86.4%
4 | CC1(C)NC(=O)N(c2ccc([N+](=O)[O-])c(C(F)(F)F)c2)C1=O [nilutamide] + OCCn1cc(-c2cnc3nnn(Cc4ccc5ncccc5c4)c3n2)cn1 [PF04217903] (first compound 1 µM, partner dose 1 µM) | 104% | 107% | 121% | 86.9% | 114% | 99.8% | 118% | 104% | 102% | 114% | 100% | 102% | 86.3% | 87.4% | 108% | 102%
5 | O=c1[nH]nc(Sc2ncc([N+](=O)[O-])s2)n1-c1ccc2c(c1)OCCO2 + Oc1cc(-c2nc(-c3ccccc3)[nH]c2-c2ccncc2)ccc1Cl [L779450] (first compound 0.2 µM, partner dose 0.2 µM) | 79.7% | 95.6% | 113% | 80.4% | 93.4% | 93.4% | 118% | 109% | 84.4% | 68.4% | 85.3% | 112% | 85.6% | 84.5% | 110% | 103%
6 | COc1cc(Nc2ncc(F)c(Nc3ccc4c(n3)NC(=O)C(C)(C)O4)n2)cc(OC)c1OC [Tamatinib] + O=C(O)c1ccc(-c2c[nH]c3ncc(-c4ccccc4)cc23)cc1C1CCCC1 [GSK650394] (first compound 0.4 µM, partner dose 0.16 µM) | 95.9% | 84.3% | 99% | 94.6% | 68.8% | 93.3% | 97.7% | 77.3% | 66.5% | 72% | 94.1% | 92% | 80.3% | 81.6% | 107% | 88.2%
7 | O=c1[nH]nc(Sc2ncc([N+](=O)[O-])s2)n1-c1ccc2c(c1)OCCO2 + NCC(=O)Nc1ccc(-n2nc(C(F)(F)F)cc2-c2ccc3c(ccc4ccccc43)c2)cc1 [OSU03012] (first compound 0.2 µM, partner dose 1 µM) | 97% | 53.1% | 111% | 92.5% | 83.8% | 50.9% | 57.4% | 85.1% | 118% | 106% | 85.1% | 86.7% | 104% | 54.5% | 111% | 43%
8 | O=c1[nH]nc(Sc2ncc([N+](=O)[O-])s2)n1-c1ccc2c(c1)OCCO2 + COc1ccc2c(c1)CCC1C2CCC2(C)C(NCCCCCCN3C(=O)C=CC3=O)CCC12 [U73122] (first compound 0.2 µM, partner dose 0.4 µM) | 94.3% | 95.2% | 91.9% | 95.2% | 107% | 107% | 108% | 98.7% | 108% | 82.6% | 93.1% | 84.3% | 92.3% | 113% | 76.4% | 106%
9 | COc1cc(Nc2ncc(F)c(Nc3ccc4c(n3)NC(=O)C(C)(C)O4)n2)cc(OC)c1OC [Tamatinib] + CN(NC(=O)CC(=O)NN(C)C(=S)c1ccccc1)C(=S)c1ccccc1 [STA4783] (first compound 0.4 µM, partner dose 0.006 µM) | 95.3% | 94.4% | 87.8% | 95% | 80.7% | 100% | 103% | 94.5% | 94.8% | 97.2% | 71.1% | 67.5% | 39.4% | 97% | 51.1% | 105%
10 | O=C(O)c1ccc(-c2c[nH]c3ncc(-c4ccccc4)cc23)cc1C1CCCC1 + CN(NC(=O)CC(=O)NN(C)C(=S)c1ccccc1)C(=S)c1ccccc1 [STA4783] (first compound 0.16 µM, partner dose 0.006 µM) | 95.7% | 87.9% | 105% | 97.3% | 83.8% | 94.1% | 86.8% | 108% | 79.8% | 81.4% | 64.5% | 81.6% | 45.6% | 81.5% | 46.7% | 86.9%
11 | O=c1[nH]nc(Sc2ncc([N+](=O)[O-])s2)n1-c1ccc2c(c1)OCCO2 + N#Cc1c(O)c2c(-c3ccc(-c4ccccc4O)cc3)csc2[nH]c1=O [A769662] (first compound 0.2 µM, partner dose 2 µM) | 109% | 113% | 110% | 121% | 97.4% | 114% | 106% | 116% | 116% | 125% | 107% | 92.8% | 93.4% | 87.8% | 102% | 116%
12 | O=c1[nH]nc(Sc2ncc([N+](=O)[O-])s2)n1-c1ccc2c(c1)OCCO2 + CC(C)(C)c1cnc(CSc2cnc(NC(=O)C3CCNCC3)s2)o1 [SNS-032] (first compound 0.2 µM, partner dose 0.01 µM) | 107% | 106% | 89.1% | 108% | 93.2% | 102% | 109% | 109% | 103% | 96.2% | 96.8% | 82.3% | 82% | 88.4% | 119% | 109%
13 | COc1cc(Nc2ncc(F)c(Nc3ccc4c(n3)NC(=O)C(C)(C)O4)n2)cc(OC)c1OC [Tamatinib] + Cc1ccc(NC(=O)c2cccc(N(C)C)c2)cc1NC(=O)c1ccc(O)cc1 [ZM336372] (first compound 0.4 µM, partner dose 2 µM) | 74.4% | 86.6% | 72.1% | 86% | 81.2% | 101% | 81.1% | 90.9% | 77.4% | 82.6% | 88.6% | 82% | 66.6% | 98.1% | 94.2% | 84.8%
14 | O=c1[nH]nc(Sc2ncc([N+](=O)[O-])s2)n1-c1ccc2c(c1)OCCO2 + CN(NC(=O)CC(=O)NN(C)C(=S)c1ccccc1)C(=S)c1ccccc1 [STA4783] (first compound 0.2 µM, partner dose 0.006 µM) | 104% | 99.2% | 92.9% | 86.4% | 89% | 101% | 93.5% | 96.4% | 91.6% | 86% | 89.1% | 82% | 59.8% | 83.4% | 75% | 91.6%
15 | COc1cc(Nc2ncc(F)c(Nc3ccc4c(n3)NC(=O)C(C)(C)O4)n2)cc(OC)c1OC [Tamatinib] + C=CCn1c(=O)c2cnc(Nc3ccc(N4CCN(C)CC4)cc3)nc2n1-c1cccc(C(C)(C)O)n1 [MK1775] (first compound 0.4 µM, partner dose 0.02 µM) | 94.1% | 88.6% | 74.9% | 81.6% | 78.3% | 84.7% | 97.4% | 81.8% | 72% | 79.7% | 83.6% | 83% | 74.3% | 84% | 81.6% | 115%
16 | O=c1[nH]nc(Sc2ncc([N+](=O)[O-])s2)n1-c1ccc2c(c1)OCCO2 + Cc1cc(N2CCOCC2)cc2[nH]c(-c3c(NC[C@@H](O)c4cccc(Cl)c4)cc[nH]c3=O)nc12 [BMS536924] (first compound 0.2 µM, partner dose 0.2 µM) | 93.2% | 93% | 89.2% | 80.8% | 98.3% | 97.6% | 86.4% | 94.6% | 97.9% | 102% | 94.4% | 93.5% | 76.7% | 87.2% | 101% | 85%
17 | C[C@@H]1CCN(C(=O)CC#N)C[C@@H]1N(C)c1ncnc2[nH]ccc12 + O=C(O)c1ccc(-c2c[nH]c3ncc(-c4ccccc4)cc23)cc1C1CCCC1 [GSK650394] (first compound 1 µM, partner dose 0.16 µM) | 97.4% | 94.1% | 95.9% | 68.4% | 82.7% | 95.9% | 99% | 98.6% | 83.8% | 101% | 93.8% | 96.5% | 99.8% | 87.6% | 84.8% | 103%
18 | COc1cc(Nc2ncc(F)c(Nc3ccc4c(n3)NC(=O)C(C)(C)O4)n2)cc(OC)c1OC [Tamatinib] + OCCn1cc(-c2cnc3nnn(Cc4ccc5ncccc5c4)c3n2)cn1 [PF04217903] (first compound 0.4 µM, partner dose 1 µM) | 95% | 89.4% | 87.9% | 95.6% | 84.4% | 94.1% | 101% | 96.8% | 86.7% | 92.4% | 83.5% | 89.3% | 87% | 88.9% | 87.6% | 78.6%
